Test systems include A101D; A2058; A375.
Experiment in all cases: cell count relative to DMSO control; melanoma cells; higher = more viable cells
Holding throughout (conditions): library dose: standard library concentration; 72 h

The other results are listed elsewhere or left out. Repeats are few or missing, and single values can be far off.
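Note: cells treated in 1,536-well plates, then fixed and DAPI-stained, with nuclei counted from automated high-throughput microscope images.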

Consider `CC[C@]1(O)C[C@H]2CN(CCc3c([nH]c4ccccc34)[C@@](C(=O)OC)(c3cc4c(cc3OC)N(C=O)[C@H]3[C@@](O)(C(=O)OC)[C@H](OC(C)=O)[C@]5(CC)C=CCN6CC[C@]43[C@@H]65)C2)C1` [vincristine] + CC(=O)O[C@@]12CO[C@@H]1C[C@H](O)[C@@]1(C)C(=O)[C@H](O)C3=C(C)[C@@H](OC(=O)[C@H](O)[C@@H](NC(=O)OC(C)(C)C)c4ccccc4)C[C@@](O)([C@@H](OC(=O)c4ccccc4)[C@H]21)C3(C)C [Docetaxel] (first compound 0.0005 µM, partner dose 0.0005 µM), for which the cell count is 48.1% in the assay on A101D, 12.2% in the assay with A2058 and 53.2% in the assay with A375.
Take `N#CC[C@H](C1CCCC1)n1cc(-c2ncnc3[nH]ccc23)cn1` [ruxolitinib] + CN1CCN(c2ccc3nc(-c4c(N)c5c(F)cccc5[nH]c4=O)[nH]c3c2)CC1 [Dovitinib] (first compound 5 µM, partner dose 0.5 µM): the cell count in the assay with A101D is 78.1%; in the assay on A2058, 42.2%; in the assay with A375, 104%.
The corresponding values for `N#CC[C@H](C1CCCC1)n1cc(-c2ncnc3[nH]ccc23)cn1` [ruxolitinib] + COc1cc([C@@H]2c3cc4c(cc3[C@@H](O[C@@H]3O[C@@H]5CO[C@@H](C)O[C@H]5[C@H](O)[C@H]3O)[C@H]3COC(=O)[C@H]23)OCO4)cc(OC)c1O [etoposide] (first compound 5 µM, partner dose 0.1 µM) are 111%, 73.1% and 91.4%.
With `Cc1cc(Nc2cc(N3CCN(C)CC3)nc(Sc3ccc(NC(=O)C4CC4)cc3)n2)n[nH]1` [Tozasertib] + Cc1cc(N2CCOCC2)cc2[nH]c(-c3c(NC[C@@H](O)c4cccc(Cl)c4)cc[nH]c3=O)nc12 [BMS536924] (first compound 0.03 µM, partner dose 1 µM), the cell count is 97.2% in the assay with A101D, 76.4% with A2058 and 95.2% with A375.
Take `Cc1cc(Nc2cc(N3CCN(C)CC3)nc(Sc3ccc(NC(=O)C4CC4)cc3)n2)n[nH]1` [Tozasertib] + Cn1c(=O)n(-c2ccc(C(C)(C)C#N)cc2)c2c3cc(-c4cnc5ccccc5c4)ccc3ncc21 [NVP-BEZ235] (first compound 0.03 µM, partner dose 0.02 µM): the cell count in the assay on A101D was found to be 76.5%; with A2058 it was 53.9%; with A375 it was 101%.
On to `Cc1cc(Nc2cc(N3CCN(C)CC3)nc(Sc3ccc(NC(=O)C4CC4)cc3)n2)n[nH]1` [Tozasertib] + Nc1ncn([C@H]2C[C@H](O)[C@@H](CO)O2)c(=O)n1 [decitabine] (first compound 0.03 µM, partner dose 0.5 µM), for which the values for the cell count in the assay with A101D, in the assay on A2058 and in the assay with A375 were 65.9%, 49.9% and 90.2%, respectively.
The corresponding values for `CC[C@]1(O)C[C@H]2CN(CCc3c([nH]c4ccccc34)[C@@](C(=O)OC)(c3cc4c(cc3OC)N(C=O)[C@H]3[C@@](O)(C(=O)OC)[C@H](OC(C)=O)[C@]5(CC)C=CCN6CC[C@]43[C@@H]65)C2)C1` [vincristine] + CO[C@@H]1[C@H](N(C)C(=O)c2ccccc2)C[C@H]2O[C@]1(C)n1c3ccccc3c3c4c(c5c6ccccc6n2c5c31)C(=O)NC4 [Midostaurin] (first compound 0.0005 µM, partner dose 0.4 µM) are 49.3%, 34% and 85.8%.
`CC[C@]1(O)C[C@H]2CN(CCc3c([nH]c4ccccc34)[C@@](C(=O)OC)(c3cc4c(cc3OC)N(C=O)[C@H]3[C@@](O)(C(=O)OC)[C@H](OC(C)=O)[C@]5(CC)C=CCN6CC[C@]43[C@@H]65)C2)C1` [vincristine] + Cc1cn(-c2cc(NC(=O)c3ccc(C)c(Nc4nccc(-c5cccnc5)n4)c3)cc(C(F)(F)F)c2)cn1 [nilotinib] (first compound 0.0005 µM, partner dose 1 µM): the cell count in the assay on A101D is 40.5%; with A2058 it was 89.8%; in the assay with A375, 124%.
`Cc1cc(Nc2cc(N3CCN(C)CC3)nc(Sc3ccc(NC(=O)C4CC4)cc3)n2)n[nH]1` [Tozasertib] + CC(=O)O[C@@]12CO[C@@H]1C[C@H](O)[C@@]1(C)C(=O)[C@H](O)C3=C(C)[C@@H](OC(=O)[C@H](O)[C@@H](NC(=O)OC(C)(C)C)c4ccccc4)C[C@@](O)([C@@H](OC(=O)c4ccccc4)[C@H]21)C3(C)C [Docetaxel] (first compound 0.03 µM, partner dose 0.0005 µM): the cell count in the assay with A101D was found to be 49.8%; in the assay with A2058, 5.16%; in the assay on A375, 66.6%.
For the compound `Cc1cc(Nc2cc(N3CCN(C)CC3)nc(Sc3ccc(NC(=O)C4CC4)cc3)n2)n[nH]1` [Tozasertib] + C[C@@H]1CCN(C(=O)CC#N)C[C@@H]1N(C)c1ncnc2[nH]ccc12 [CP690550] (first compound 0.03 µM, partner dose 5 µM), the cell count in the assay with A101D worked out at 93.8%; with A2058, 74.2%; in the assay on A375, 94.8%.
On the same counts, the results for `N#CC[C@H](C1CCCC1)n1cc(-c2ncnc3[nH]ccc23)cn1` [ruxolitinib] + COc1cc(Nc2ncc(F)c(Nc3ccc4c(n3)NC(=O)C(C)(C)O4)n2)cc(OC)c1OC [Tamatinib] (first compound 5 µM, partner dose 2 µM) are 18.8%, 42.3% and 128%.
The corresponding values for `CC[C@]1(O)C[C@H]2CN(CCc3c([nH]c4ccccc34)[C@@](C(=O)OC)(c3cc4c(cc3OC)N(C=O)[C@H]3[C@@](O)(C(=O)OC)[C@H](OC(C)=O)[C@]5(CC)C=CCN6CC[C@]43[C@@H]65)C2)C1` [vincristine] + O=c1[nH]nc(Sc2ncc([N+](=O)[O-])s2)n1-c1ccc2c(c1)OCCO2 [BI78D3] (first compound 0.0005 µM, partner dose 1 µM) are 60.9%, 72.5% and 81.3%.
Take `CC[C@]1(O)C[C@H]2CN(CCc3c([nH]c4ccccc34)[C@@](C(=O)OC)(c3cc4c(cc3OC)N(C=O)[C@H]3[C@@](O)(C(=O)OC)[C@H](OC(C)=O)[C@]5(CC)C=CCN6CC[C@]43[C@@H]65)C2)C1` [vincristine] + NC1(c2ccc(-c3nc4ccn5c(=O)[nH]nc5c4cc3-c3ccccc3)cc2)CCC1 [MK2206] (first compound 0.0005 µM, partner dose 2 µM): the cell count in the assay on A101D stood at 29%; with A2058, 12%; in the assay on A375, 65.5%.
Turning to `N#CC[C@H](C1CCCC1)n1cc(-c2ncnc3[nH]ccc23)cn1` [ruxolitinib] + c1cc(-c2cnn3cc(-c4ccc(OCCN5CCCCC5)cc4)cnc23)ccn1 [Dorsomorphin] (first compound 5 µM, partner dose 2 µM), the cell count is 74.6% in the assay with A101D, 47.7% with A2058 and 96.5% in the assay with A375.
For `CC[C@]1(O)C[C@H]2CN(CCc3c([nH]c4ccccc34)[C@@](C(=O)OC)(c3cc4c(cc3OC)N(C=O)[C@H]3[C@@](O)(C(=O)OC)[C@H](OC(C)=O)[C@]5(CC)C=CCN6CC[C@]43[C@@H]65)C2)C1` [vincristine] + CN1CCN(c2ccc3nc(-c4c(N)c5c(F)cccc5[nH]c4=O)[nH]c3c2)CC1 [Dovitinib] (first compound 0.0005 µM, partner dose 0.5 µM), the figures for the cell count in the assay on A101D, in the assay with A2058 and in the assay on A375 were 42%, 13.1% and 74%, respectively.
As for `N#CC[C@H](C1CCCC1)n1cc(-c2ncnc3[nH]ccc23)cn1` [ruxolitinib] + Cc1cc(Nc2cc(N3CCN(C)CC3)nc(/C=C/c3ccccc3)n2)n[nH]1 [ENMD2076] (first compound 5 µM, partner dose 0.2 µM), the cell count in the assay on A101D came out at 106%; in the assay with A2058, 76.6%; in the assay with A375, 139%.
The corresponding values for `CC[C@]1(O)C[C@H]2CN(CCc3c([nH]c4ccccc34)[C@@](C(=O)OC)(c3cc4c(cc3OC)N(C=O)[C@H]3[C@@](O)(C(=O)OC)[C@H](OC(C)=O)[C@]5(CC)C=CCN6CC[C@]43[C@@H]65)C2)C1` [vincristine] + COc1ccc(C2=N[C@@H](c3ccc(Cl)cc3)[C@@H](c3ccc(Cl)cc3)N2C(=O)N2CCNC(=O)C2)c(OC(C)C)c1 [Nutlin-3] (first compound 0.0005 µM, partner dose 0.5 µM) are 53%, 72% and 78.7%.
The corresponding values for `Cc1cc(Nc2cc(N3CCN(C)CC3)nc(Sc3ccc(NC(=O)C4CC4)cc3)n2)n[nH]1` [Tozasertib] + COc1cc2c(Oc3ccc4[nH]c(C)cc4c3F)ncnc2cc1OCCCN1CCCC1 [cediranib] (first compound 0.03 µM, partner dose 2 µM) are 82.3%, 72.9% and 111%.
The corresponding values for `CC[C@]1(O)C[C@H]2CN(CCc3c([nH]c4ccccc34)[C@@](C(=O)OC)(c3cc4c(cc3OC)N(C=O)[C@H]3[C@@](O)(C(=O)OC)[C@H](OC(C)=O)[C@]5(CC)C=CCN6CC[C@]43[C@@H]65)C2)C1` [vincristine] + Cn1cnc2c(F)c(Nc3ccc(Br)cc3Cl)c(C(=O)NOCCO)cc21 [selumetinib] (first compound 0.0005 µM, partner dose 0.075 µM) are 67.9%, 101% and 80.8%.
For the compound `CC[C@]1(O)C[C@H]2CN(CCc3c([nH]c4ccccc34)[C@@](C(=O)OC)(c3cc4c(cc3OC)N(C=O)[C@H]3[C@@](O)(C(=O)OC)[C@H](OC(C)=O)[C@]5(CC)C=CCN6CC[C@]43[C@@H]65)C2)C1` [vincristine] + Nc1ccn([C@@H]2O[C@H](CO)[C@@H](O)C2(F)F)c(=O)n1 [gemcitabine] (first compound 0.0005 µM, partner dose 0.002 µM), the cell count amounted to 51% in the assay with A101D, 67.6% with A2058 and 92.2% in the assay on A375.
Consider `CC[C@]1(O)C[C@H]2CN(CCc3c([nH]c4ccccc34)[C@@](C(=O)OC)(c3cc4c(cc3OC)N(C=O)[C@H]3[C@@](O)(C(=O)OC)[C@H](OC(C)=O)[C@]5(CC)C=CCN6CC[C@]43[C@@H]65)C2)C1` [vincristine] + C=CCNC1=C2C[C@@H](C)C[C@H](OC)[C@H](O)[C@@H](C)/C=C(\C)[C@H](OC(N)=O)[C@@H](OC)/C=C\C=C(/C)C(=O)NC(=CC1=O)C2=O [Tanespimycin] (first compound 0.0005 µM, partner dose 0.01 µM), for which the cell count in the assay with A101D was determined as 62.9%; with A2058, 69.1%; in the assay with A375, 87.5%.
